Measured values published in paper PMC1950744, “Transcription Termination Defective Mutants of Rho: Role of Different Functions of Rho in Releasing RNA from the Elongation Complex” (Journal of Molecular Biology, 2007).

B1: Rho N340S (enzyme)
chain: not shown
notes: Transcription termination factor Rho, Escherichia coli; mutant rho gene cloned at NdeI/XhoI of pET21b; source: E. coli BL21(DE3), purified (Ni-NTA, heparin-Sepharose)
B2: Rho Y80C (enzyme)
chain: not shown
notes: Transcription termination factor Rho, Escherichia coli; mutant rho gene cloned at NdeI/XhoI of pET21b; source: E. coli BL21(DE3), purified (Ni-NTA in the presence of 1 M NaCl, heparin-Sepharose)
B3: Rho G51V (enzyme)
chain: not shown
notes: as for B1
B4: Rho I382N (enzyme)
chain: not shown
notes: Transcription termination factor Rho, Escherichia coli; mutant rho gene cloned at NdeI/XhoI of pET21b; source: E. coli BL21SI (salt-inducible strain), purified (Ni-NTA, heparin-Sepharose)
B5: Rho P279S (enzyme)
chain: not shown
notes: as for B1
B6: Rho G324D (enzyme)
chain: not shown
notes: as for B1
B7: Rho Y274D (enzyme)
chain: not shown
notes: as for B1

Biological target: the molecule itself
Experiment: cross-linking; chemical cross-linking of purified Rho proteins; hexamer above the concentration of 1 μM; data not shown

Protein | stoichiometry N
B1 | 6
B2 | 6
B3 | 6
B4 | 6
B5 | 6
B6 | 6
B7 | 6
